Data taken from US11130822B2 (ROCHE GLYCART AG, dated 2021).

T1: human IL-2R α-subunit (human)
T1 chain: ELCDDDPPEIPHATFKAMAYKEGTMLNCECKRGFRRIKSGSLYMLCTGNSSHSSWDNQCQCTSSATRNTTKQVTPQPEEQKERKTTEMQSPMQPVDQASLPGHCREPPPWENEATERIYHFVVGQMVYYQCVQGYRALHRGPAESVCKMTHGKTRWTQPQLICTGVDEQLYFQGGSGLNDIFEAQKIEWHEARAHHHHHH

B1: FAP-targeted 4G8-based IgG-IL-2 qm immunoconjugate (other)
heavy 1: [about 100 residues not given here]GWLGNFDYWGQGTLVTVSSASTKGPSVFPLAPSSKSTSGGTAALGCLVKDYFPEPVTVSWNSGALTSGVHTFPAVLQSSGLYSLSSVVTVPSSSLGTQTYICNVNHKPSNTKVDKKVEPKSCDKTHTCPPCPAPEAAGGPSVFLFPPKPKDTLMISRTPEVTCVVVDVSHEDPEVKFNWYVDGVEVHNAKTKPREEQYNSTYRVVSVLTVLHQDWLNGKEYKCKVSNKALGAPIEKTISKAKGQPREPQVCTLPPSRDELTKNQVSLSCAVKGFYPSDIAVEWESNGQPENNYKTTPPVLDSDGSFFLVSKLTVDKSRWQQGNVFSCSVMHEALHNHYTQKSLSLSPGK
heavy 2: [about 100 residues not given here][about 120 residues not given here][human IgG1 Fc with changes not given here]GGGGSGGGGSGGGGAPASSSTKKTQLQLEHLLLDLQMILNGINNYKNPKLTRMLTAKFAMPKKATELKHLQCLEEELKPLEEVLNGAQSKNFHLRPRDLISNINVIVLELKGSETTFMCEYADETATIVEFLNRWITFAQSIISTLT
light: EIVLTQSPGTLSLSPGERATLSCRASQSVSRSYLAWYQQKPGQAPRLLIIGASTRATGIPDRFSGSGSGTDFTLTISRLEPEDFAVYYCQQGQVIPPTFGQGTKVEIKRTVAAPSVFIFPPSDEQLKSGTASVVCLLNNFYPREAKVQWKVDNALQSGNSQESVTEQDSKDSTYSLSSTLTLSKADYEKHKVYACEVTHQGLSSPVTKSFNRGEC
B2: FAP-targeted 4B9-based IgG-IL-2 wt immunoconjugate (other)
heavy 1: EVQLLESGGGLVQPGGSLRLSCAASGFTFSSYAMSWVRQAPGKGLEWVSAIIGSGASTYYADSVKGRFTISRDNSKNTLYLQMNSLRAEDTAVYYCAKGWFGGFNYWGQGTLVTVSSASTKGPSVFPLAPSSKSTSGGTAALGCLVKDYFPEPVTVSWNSGALTSGVHTFPAVLQSSGLYSLSSVVTVPSSSLGTQTYICNVNHKPSNTKVDKKVEPKSCDKTHTCPPCPAPEAAGGPSVFLFPPKPKDTLMISRTPEVTCVVVDVSHEDPEVKFNWYVDGVEVHNAKTKPREEQYNSTYRVVSVLTVLHQDWLNGKEYKCKVSNKALGAPIEKTISKAKGQPREPQVCTLPPSRDELTKNQVSLSCAVKGFYPSDIAVEWESNGQPENNYKTTPPVLDSDGSFFLVSKLTVDKSRWQQGNVFSCSVMHEALHNHYTQKSLSLSPGK
heavy 2: EVQLLESGGGLVQPGGSLRLSCAASGFTFSSYAMSWVRQAPGKGLEWVSAIIGSGASTYYADSVKGRFTISRDNSKNTLYLQMNSLRAEDTAVYYCAKGWFGGFNYWGQGTLVTVSSASTKGPSVFPLAPSSKSTSGGTAALGCLVKDYFPEPVTVSWNSGALTSGVHTFPAVLQSSGLYSLSSVVTVPSSSLGTQTYICNVNHKPSNTKVDKKV[human IgG1 Fc with changes not given here]GGGGSGGGGSGGGGS[about 150 residues not given here]
light: B1 light with S30T, R31S, I50N, G51V, A52G, T54R, Q93I, V94M, I95L
B3: CEA-targeted CH1A1A 98/99 2F1-based IgG-IL-2 wt immunoconjugate (other)
heavy 1: QVQLVQSGAEVKKPGASVKVSCKASGYTFTEFGMNWVRQAPGQGLEWMGWINTKTGEATYVEEFKGRVTFTTDTSTSTAYMELRSLRSDDTAVYYCARWDFAYYVEAMDYWGQGTTVTVSSASTKGPSVFPLAPSSKSTSGGTAALGCLVKDYFPEPVTVSWNSGALTSGVHTFPAVLQSSGLYSLSSVVTVPSSSLGTQTYICNVNHKPSNTKVDKKVEPKSCDKTHTCPPCPAPEAAGGPSVFLFPPKPKDTLMISRTPEVTCVVVDVSHEDPEVKFNWYVDGVEVHNAKTKPREEQYNSTYRVVSVLTVLHQDWLNGKEYKCKVSNKALGAPIEKTISKAKGQPREPQVCTLPPSRDELTKNQVSLSCAVKGFYPSDIAVEWESNGQPENNYKTTPPVLDSDGSFFLVSKLTVDKSRWQQGNVFSCSVMHEALHNHYTQKSLSLSPGK
heavy 2: QVQLVQSGAEVKKPGASVKVSCKASGYTFTEFGMNWVRQAPGQGLEWMGWINTKTGEATYVEEFKGRVTFTTDTSTSTAYMELRSLRSDDTAVYYCARWDFAYYVEAMDYWGQGTTVTVSSASTKGPSVFPLAPSSKSTSGGTAALGCLVKDYFPEPVTVSWNSGALTSGVHTFPAVLQSSGLYSLSSVVTVPSSSLGTQTYICNVNHKPSNTKVDKKV[human IgG1 Fc with changes not given here]GGGGSGGGGSGGGGS[about 150 residues not given here]
light: DIQMTQSPSSLSASVGDRVTITCKASAAVGTYVAWYQQKPGKAPKLLIYSASYRKRGVPSRFSGSGSGTDFTLTISSLQPEDFATYYCHQYYTYPLFTFGQGTKLEIKRTVAAPSVFIFPPSDEQLKSGTASVVCLLNNFYPREAKVQWKVDNALQSGNSQESVTEQDSKDSTYSLSSTLTLSKADYEKHKVYACEVTHQGLSSPVTKSFNRGEC
B4: CEA-targeted CH1A1A 98/99 2F1-based IgG-IL-2 qm immunoconjugate (other)
heavy 1: B3 heavy 1
heavy 2: QVQLVQSGAEVKKPGASVKVSCKASGYTFTEFGMNWVRQAPGQGLEWMGWINTKTGEATYVEEFKGRVTFTTDTSTSTAYMELRSLRSDDTAVYYCARWDFAYYVEAMDYWGQGTTVTVSS[human IgG1 constant region with changes not given here]SGGGGSGGGGSGGGGAPASSSTKKTQLQLEHLLLDLQMILNGINNYKNPKLTRMLTAKFAMPKKATELKHLQCLEEELKPLEEVLNGAQSKNFHLRPRDLISNINVIVLELKGSETTFMCEYADETATIVEFLNRWITFAQSIISTLT
light: B3 light

What was measured:
[1] = biological target: human FAP expressed on stably transfected HEK293 cells (human, UniProt Q12884); test: FACS on HEK293 cells stably transfected with human FAP
[2] = biological target: human IL-2R βγ heterodimer (IL-2R βγ subunit-Fc fusion) (human); test: SPR, IL-2R βγ heterodimer immobilized on CM5 chip; apparent KD, 1:1 fit
[3] = biological target: IL-2R βγ heterodimer on human PBMC subsets (NK cells, CD8+ T cells, CD4+ T cells, Treg cells) (human, UniProt P14784); test: cell-based or functional assay
human IL-2R α-subunit = biological target: T1, human IL-2R α-subunit; test: SPR at 25° C.
CEA (SPR ligand) = CEA (SPR ligand) (human, UniProt P06731); test: SPR at 25° C.

Binder | EC50 [1] [nM] | Kd [2] [nM] | STAT5 phosphorylation in NK cells and CD8+ T cells from human PBMCs (FACS) [3] | Kd (human IL-2R α-subunit) [nM] | Kd (CEA (SPR ligand)) [nM]
B1 | 0.9 | 5.9 | < 10 fold less potent than Proleukin | – | –
B2 | – | – | – | ~20 | –
B3 | – | – | – | ~20 | 0.47
B4 | – | – | – | – | 0.4

Residue numbers refer to the chain shown, from its start.
